# B1: wild type visual arrestin-1 (natural protein)
# chain: not shown
# notes: bovine visual arrestin-1 (arr-1), wild type; also called arr-1; wild type arr-1; source: Saccharomyces cerevisiae F11 alpha (pYEX-BX vector), purified (SEC on Superdex 200)
# Molecular target: the molecule itself
# Experiment: SEC; arrestin alone, without peptide; Superdex 200 16/600, 10 mM Hepes, 150 mM KCl, pH 7.5, 0.5 ml/min
protein,measurement,value
B1,stoichiometry N,2

# Source: publication PMC7331637, “Phosphorylated peptide of G protein-coupled receptor induces dimerization in activated arrestin” (Scientific Reports, 2020)
